In publication PMC4242493:
The other results are listed elsewhere or left out. The list includes weakly bound sequences.

Target: MaxL homodimer (UniProt P61244)
Assay: universal protein-binding microarray (PBM)
Conditions: PBS-based mixture, 10 nM His-tagged protein dimer, 2% milk, 200 ng/uL BSA, 50 ng/uL salmon testes DNA, 0.02% TX-100; detection with Alexa 488 anti-His …; high values mean tight binding; most listed sequences are background and not binding sites; double strand, one strand shown

Sequence of UniProt P61244 (P61244 whole entry): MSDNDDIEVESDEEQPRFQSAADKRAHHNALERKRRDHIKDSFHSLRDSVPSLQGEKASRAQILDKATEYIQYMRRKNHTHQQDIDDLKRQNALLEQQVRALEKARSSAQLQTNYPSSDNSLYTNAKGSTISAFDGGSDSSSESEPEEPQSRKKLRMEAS

Sequence	binding signal (normalized occupancy)
AGCTTAGC	0.0725
CCAGATAA	0.0789
ACTATCAT	0.085
AGCATCAG	0.0766
TATAAGAA	0.0821
AGACTGTA	0.0748
GAGGGAAC	0.0739
ATGCCCCA	0.0786
CTGTAGGC	0.0724
ATGGGAGA	0.0839
AGTCGAAC	0.0714
ACAAAAGA	0.0779
CGATCTGA	0.0701
GGGAACAA	0.0766
CGTTCACA	0.0787
GAGCAGCA	0.0762
CTACACAC	0.093
CCTCGACC	0.0736
TAAGTCGA	0.0739
AGTTTTAT	0.0775
GTCACAGA	0.0741
ATCGGCCG	0.0669
AATTGGGA	0.0784
ATGGCCCG	0.0714
CCCTTGAA	0.0754

Sequence	binding signal (normalized occupancy)
AGCGTCTG	0.0699
CTTAAGTC	0.0714
CTGATGGC	0.0797
CTGGCGGC	0.0663
AAGAACTT	0.0721
ATTGATGA	0.0809
CGTGAAAC	0.0779
GGAGAGGA	0.0702
ACCGACGT	0.0675
CAAGCCGG	0.0671
ACGCCCGG	0.0705
AAAACGTA	0.0744
AGTAACAG	0.071
CCAGTGCC	0.0713
AGTTCGCC	0.0678
GTATTAAA	0.0765
CTGCAGTA	0.0706
CCGTGTAA	0.0797
AGACTTGA	0.072
CGAAGTTC	0.0686
GAGGGAGC	0.0727
ATCACAAA	0.0814
AGGTTATA	0.0794
AACAATGA	0.0819
ACGGACGT	0.0685

Sequence	binding signal (normalized occupancy)
ACTCCGGA	0.0722
CGGTGACG	0.0751
AGGTCGGC	0.0678
GACATTAA	0.0815
CGGCGCCG	0.0686
CAAAGACG	0.068
ATAGCCGC	0.0716
AACCCCCG	0.077
ATCTTGAC	0.0784
AGAACGTA	0.0742
AGTGTTCC	0.0695
GCTTTCAC	0.071
CATTTGGA	0.0765
ACAACCTG	0.0804
AAAGAGCG	0.0678
GACCGTGA	0.0738
CGCGTGAG	0.109
ACTTCGTG	0.0718
TAGCTTCA	0.0759
TTACAAAA	0.0724
CAACGTCG	0.0706
CAGATTTA	0.0742
AGTTGTCG	0.0737
ACACTCGG	0.0736
ATAAGACG	0.0798

Sequence	binding signal (normalized occupancy)
CGCGACAG	0.0727
CGACTGTA	0.0699
CCAGATTC	0.071
ACACTCGA	0.0734
ACGGCCAC	0.076
ACCACGTA	0.0816
AAGCACCG	0.0685
CGTTGATC	0.077
CAACAGCG	0.0696
CATACTAA	0.0776
AAAATCGT	0.0814
GCCATGTA	0.0843
AATGCACG	0.0974
ATTCAACA	0.0822
CAGGCTGA	0.0746
GGCCGGAC	0.0713
GCTGTGTA	0.0781
ACCTGATG	0.0825
AGTAATTA	0.0718
CATTCTAG	0.0749
AAAGGAGA	0.0761
TAGTGTCA	0.0767
ATTAACGG	0.0709
CACTGCGG	0.074
ACCACTCC	0.0804

Sequence	binding signal (normalized occupancy)
CGGAATCC	0.0744
ATAGAAAG	0.0831
CAGTACAA	0.0781
CGTGTGTC	0.0936
GGATAAAC	0.0768
AGCAGATC	0.077
CGAAATCC	0.0763
AGGAAGAA	0.0726
ATTAACGC	0.0763
AGTATGAC	0.0866
GTCGTAAA	0.0749
GTCGCGAA	0.0698
AAAGCGGC	0.0666
CCTCCGCA	0.0736
CTCTGGGA	0.0701
CGCATACC	0.0845
CCAAGCAC	0.082
CGGGAAGC	0.0681
CCGAAACA	0.0779
ACCTCGAT	0.072
AGTGTAAA	0.0803
CTCTGCAA	0.0718
AGCCCATA	0.0829
CCTAAGAA	0.0797
ACCATCCC	0.084

Sequence	binding signal (normalized occupancy)
GGCGTAAC	0.0704
ACACGTAC	0.0858
ACCAGTCC	0.0702
CAGCGGTA	0.0751
AAGTCGGT	0.0677
CGGAGTGC	0.0772
ACCCGTGA	0.0833
CTATAAAG	0.0781
ATCGGTTC	0.0697
ATGTGTCA	0.101
ATTATCTC	0.0839
CTCCAACA	0.0764
TGGCCCCA	0.0779
GCCGGGCA	0.0681
ACACGACG	0.0873
CCGCTCAG	0.0713
GCGAACGA	0.0714
ATTGGTCG	0.0709
AGGTGAGA	0.0787
GACTCTTA	0.0766
CATAACGC	0.0802
CGATATCC	0.0859
CGCCTTGC	0.0725
GGTACTTA	0.0774
CCCAAACG	0.073

Sequence	binding signal (normalized occupancy)
CACCGTTC	0.0774
ACGATTTC	0.0741
GTCGTGGA	0.0856
AATTTACT	0.0773
CAATTCCG	0.0702
CCAGTGTC	0.0756
ACTGGCGA	0.0719
CGGTCTCA	0.0736
ACCACTAG	0.0806
CAGCTCCA	0.0792
CGCAGACC	0.069
CCTTGAGC	0.0693
AAGGCGGT	0.0724
AGTCGTTC	0.0702
GCACTGAC	0.0739
GTTACTTA	0.0751
ACGTACAT	0.0839
ATAAATGG	0.0761
ATTCTCGC	0.0783
CGAGAGTC	0.0693
AAGGAATC	0.0703
AGGTGAGC	0.0783
